# According to article PMC7819943, “Rice protein-binding microarrays: a tool to detect cis-acting elements near promoter regions in rice”:
# This is one part of the list.
# Target: T1, OsWOX13 (Oryza sativa, UniProt Q5QMM3 1-267)
# T1 sequence: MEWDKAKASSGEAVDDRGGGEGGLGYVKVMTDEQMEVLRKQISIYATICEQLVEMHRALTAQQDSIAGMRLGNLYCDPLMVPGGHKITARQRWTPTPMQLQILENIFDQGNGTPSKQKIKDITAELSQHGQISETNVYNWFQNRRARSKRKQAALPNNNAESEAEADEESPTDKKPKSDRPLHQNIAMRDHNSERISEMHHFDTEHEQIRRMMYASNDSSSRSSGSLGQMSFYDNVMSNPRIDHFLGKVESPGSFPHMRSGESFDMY
# Experiment: protein-binding microarray (RPBM); PBS, 2% BSA, 51.3 ng/ul salmon testes DNA, 50 uM zinc acetate, 200 nM TF, 25 C, 1 h; high values mean tight binding
# Settings: protein: recombinant; tags: N-terminal polyhistidine and DsRed monomer fusion (pET32a); label: CyDye5-dUTP incorporated in the synthesized complementary strand; 3' TTTTT single-stranded linker to array surface; dsDNA, one strand shown
# In short: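 Using Ni–NTA, transcription factors fused N-terminally to polyhistidine and DsRed were purified after expression in E. coli BL21-CodonPlus. These were incubated at 200 nM with a blocked, double-stranded custom Agilent array for 1 h at 25 °C in a buffer containing 50 µM zinc acetate, and the array was washed. The binding signal is per-feature fluorescence intensity (arbitrary units) on an Axon 4000B scanner.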
row,Sequence,binding signal
1,AGCCTAATTAAGCTGTTATTAGCACATGTGGGTTATTGTACGGAGTCACCTAGTGCAG,22400 fluorescence intensity (a.u.)
2,GGCGATTACCTTGTTAGATTTGTCAGTATATATAAAACTTCGGAGTCACCTAGTGCAG,3640 fluorescence intensity (a.u.)
3,GGGATCATGATGGACAATGGAAACTCCAGCCTGTTTCTCTCGGAGTCACCTAGTGCAG,4690 fluorescence intensity (a.u.)
4,AGTACTAATACTAATAATTAGTTTTATCTCCGAACAGATACGGAGTCACCTAGTGCAG,5950 fluorescence intensity (a.u.)
5,AATTAATCCATGATTAGCCTATGTGATGCTACAGTAAACACGGAGTCACCTAGTGCAG,9000 fluorescence intensity (a.u.)
6,TTACGATGATATATAATTGGACGGAAGCAGCGATCATGCTCGGAGTCACCTAGTGCAG,14100 fluorescence intensity (a.u.)
7,TAAGATAAATTAATTGGTAACCTTGTATGTCCATAAGGGTCGGAGTCACCTAGTGCAG,45400 fluorescence intensity (a.u.)
8,AATCAATTTAAAATAATTTTGCACGTAAATCGGACGCTGACGGAGTCACCTAGTGCAG,17500 fluorescence intensity (a.u.)
9,AATAATTTTGATACAAATATTATCAGTTTATCACTCAAAACGGAGTCACCTAGTGCAG,4050 fluorescence intensity (a.u.)
10,CAGCAAGCCAATTAAGCGAATTAAGCACACATCAATTGACCGGAGTCACCTAGTGCAG,8530 fluorescence intensity (a.u.)
11,GATGGGATTGGGACAAAGATATGAGTGGAGGGTTGAGATGCGGAGTCACCTAGTGCAG,6790 fluorescence intensity (a.u.)
12,ACGGGAATTAAACTGATTTTGATTTTGCGAGAATCCAAACCGGAGTCACCTAGTGCAG,23600 fluorescence intensity (a.u.)
13,TATAAAATTGATGGTTGGAATTATAAATATTTCGATTGAACGGAGTCACCTAGTGCAG,9830 fluorescence intensity (a.u.)
14,GTTGATTAAGAAAACGATTTTGCTATATCTCACTCGAAAGCGGAGTCACCTAGTGCAG,21900 fluorescence intensity (a.u.)
15,TTTTGTTTCTTGATTTGAACAAGTGATGGTAGCTGAGCTGCGGAGTCACCTAGTGCAG,3860 fluorescence intensity (a.u.)
16,TCATTAATTAATTAATTACAGTGGTAGATGATGATGTAGTCGGAGTCACCTAGTGCAG,64000 fluorescence intensity (a.u.)
17,ACCCGTTTCAAATTTGAATTTGAATTATATCTGATTCAATCGGAGTCACCTAGTGCAG,4590 fluorescence intensity (a.u.)
18,AGACCATTTCACCAATCATATCATTTTATTCTTGGTTTCACGGAGTCACCTAGTGCAG,7460 fluorescence intensity (a.u.)
19,GGGATAGGAAAATGATTTTCTACCCACCATAAGACATCTTCGGAGTCACCTAGTGCAG,3680 fluorescence intensity (a.u.)
20,ATAGGTTAGATGATGATGATTATCACGATATTCTACCTCGCGGAGTCACCTAGTGCAG,12000 fluorescence intensity (a.u.)
21,GCATGATTTTAAATCTTACATTAACTTTTGCATATATTCACGGAGTCACCTAGTGCAG,16400 fluorescence intensity (a.u.)
22,CAGGCTACTGTAAATGATCAATCAACCTTTCTAGCTGGCTCGGAGTCACCTAGTGCAG,8630 fluorescence intensity (a.u.)
23,TGTCCATAAATTTGTTCTCATTCTCTGTTTATGGAACAACCGGAGTCACCTAGTGCAG,5830 fluorescence intensity (a.u.)
